PubChem BioAssay AID1963576 (National Center for Advancing Translational Sciences (NCATS), 2024)
About 60 (0.1%) of roughly 46,000 compounds were called active. About 3% were inconclusive and are not listed. Calls follow the shape of the dose curve; as a rule, active = well fitted inhibition curve with a large enough effect; inconclusive = small, poorly fitted or top-dose-only effect; inactive = no such curve, though single readings can be large or run the other way. Some of the results follow.

test: Primary qHTS assay for Inhibitors of ovarian cancer metastasis using an organotypic tumor microenvironment (TME) model.; also: nearly all actives have a fitted effect of over 65% in size;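 as to activity change, negative = inhibition: plate controls were DMSO wells for no effect and tomatine positive control wells for full effect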; settings: SKOV3ip1-GFP adhesion/invasion on 3D omental model, fluorescence; series mostly up to 45.8 µM; activity change, negative = inhibition: at the top concentration
Outline: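 Primary human omental fibroblast/mesothelial 3D culture pre-formed 48 h. SKOV3ip1-GFP cells added with compounds (0.36-46 umol/L), incubated 2 h RT/16 h 37 C, fixed; GFP cells quantified at 488/509 nm.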

outcome, inactive:
CCN(CC)CCNC(=O)c1ccc2c(=O)n3nc(Nc4ccccc4)sc3nc2c1
CC(=O)Nc1ccc(NC(=O)C2Cc3ccccc3N2C(=O)c2ccccc2)cc1 (stereo unspecified)
O=C(CSc1cn(CCNC(=O)c2c(F)cccc2F)c2ccccc12)Nc1ccccc1F
COc1ccc2c(c1)c(=O)c(C(=O)c1ccc(Cl)cc1)cn2CC(=O)Nc1ccc2c(c1)OCCO2
COc1ccc(CNC(=O)c2ccc(-c3nc(CS(=O)c4ccc(C)cc4)c(C)o3)cc2)cc1 (stereo unspecified)
Cc1oc(-c2ccccc2Cl)nc1CSc1nncn2c1cc1occc12
Cc1ccc(-c2nnn3c2nc(NCc2ccc4c(c2)OCO4)c2ccccc23)cc1
Cc1ccc(-n2ncc3c(N4CCN(Cc5ccccc5)CC4)ncnc32)cc1
COc1ccc(Cl)cc1S(=O)(=O)N1CCN(C(=O)c2cc(-c3ccc(Br)cc3)n[nH]2)CC1
CCCCCn1c(CCCNC(=O)c2ccccc2OC)nc2ccccc21
CCOC(=O)c1cnc2ccc(C(=O)OC)cc2c1Nc1ccc(OCc2ccccc2Cl)cc1
O=C(O)c1cc(-c2ccccc2)nn1Cc1ccccc1
COc1ccc(C)cc1NC(=O)N(C(C)C)C1CCN(C(C)=O)CC1
Cc1noc(Cn2c(=O)c3ccccc3n(CC(=O)Nc3cc(Cl)ccc3C)c2=O)n1
Cc1ccc(C)c(N2CCN(CCCNC(=O)c3cnn(-c4cccc(Cl)c4)c3C3CCN(C(=O)OC(C)(C)C)CC3)CC2)c1
Cc1cc(C)cc(NC(=O)C(C)N2Cc3ccccc3C2=O)c1 (stereo unspecified)
O=C(NCc1cccc(Br)c1)C1CCCCN1S(=O)(=O)c1ccc(F)cc1 (stereo unspecified)
COc1ccccc1NC(=O)c1cc2c(-c3ccccc3)nn(-c3ccccc3)c2s1
Cc1cc(=O)n2nc(N3CCC(C(=O)Nc4ccc(Br)c(C)c4)CC3)sc2n1
CCOC(=O)c1cccc(NC(=O)COc2ccc3c(C)cc(=O)oc3c2)c1

Activity change, negative = inhibition, inactive:
CCOc1cc(C2C(C(=O)OC)=C(C)NC3=C2C(=O)c2ccccc23)cc(Br)c1OCC (stereo unspecified) -21%
COc1ccc(CNC(=O)CS(=O)(=O)c2cccc3nsnc23)cc1 -4.3%
Cc1cc(C)c(NC(=O)Cc2ccc(-n3c(C)nc4cccnc43)cc2)c(C)c1 -9.4%
CC1=C(C(=O)OC2CCCCCC2)C(c2ccc(Cl)cc2)CC(=O)N1 (stereo unspecified) -9.54%
O=C(c1ccc([N+](=O)[O-])cc1)N1c2ncnn2C2(CCCCC2)[C@@H]2CCCC[C@@H]21 13.5%
COc1ccc(Cl)cc1C(=O)NCc1nc(-c2cccc(C)c2)no1 -22.7%
Cc1ccc(OC(=O)CSc2nnc(-c3cccs3)o2)c(C)c1 29.8%
COc1ccc(Cn2c(CCC(=O)Nc3ccccc3OC)nc3cccnc32)cc1 4.43%
Cc1ccc2nc(-c3ccco3)c(Nc3ccc4c(c3)OCCO4)n2c1 -17.8%
CC(C)OCCCn1c(=O)c2ccccc2n2c(-c3ccccc3F)nnc12 1.72%
CCc1c(C)nc2nc(-c3ccccc3)nn2c1NCc1ccc(C)cc1 19.6%
COc1cccc2[nH]c(C(=O)NCc3ccc4c(c3)CCN4C(=O)c3ccc(F)cc3)cc12 5.75%
COc1ccc(Br)cc1CNC(=O)Cn1ncn2nc(-c3cccs3)cc2c1=O 8.6%
COc1ccccc1N1CCN(C(=O)c2ccc3c(c2)CCN3S(=O)(=O)c2ccccc2)CC1 -3.94%
O=C(CCS(=O)(=O)c1cccc2nonc12)Nc1ccc(F)cc1F 19.8%
Cc1ccc(CNC(=O)C(C)n2c(=O)cc(-c3ccccc3)c3c(C)nn(C)c32)cc1 (stereo unspecified) 0.329%
CCCn1ccc2c(OCC(=O)Nc3ccc(OC)c(OC)c3)cccc2c1=O 6.05%
O=C(CC(c1cccs1)N1Cc2ccccc2C1=O)Nc1cccc(F)c1 (stereo unspecified) 3.23%
O=C(NCCc1ccc(F)cc1)C(=O)NCC(c1cccs1)S(=O)(=O)c1ccccc1 (stereo unspecified) -7.77%
COc1ccccc1CNC(=O)c1ccc(CSc2nc3ccncc3n2Cc2cccc(F)c2)cc1 4.56%
O=C(NOC[C@H](O)CO)c1ccc(F)c(F)c1Nc1ccc(I)cc1F 15.1%
COc1ccc2c(Sc3ccccc3)c(C(=O)NCc3cc(Br)ccc3OC)[nH]c2c1 -5.07%
Cc1cccc(-c2nc(C)c(CCNC(=O)C(=O)Nc3ccc(C)c(C)c3)s2)c1 -4.8%
CCOc1ccccc1CNc1nc2nc(C)c(CC(=O)OC)c(=O)n2[nH]1 4.28%
Cc1cccc(C(=O)Nc2ccc(S(=O)(=O)N3CCCCC3c3cccnc3)cc2)c1 (stereo unspecified) -3.57%
O=C(CSc1nc(=O)[nH]c2c1CCC2)NCc1ccc(F)cc1 3.35%
O=C(NCc1ccccc1Cl)C1=Cc2cc(Br)ccc2OC1 -1.76%
CC1=C(C(N)=O)C(c2ccc(C)cc2)n2nc(SCc3ccccc3)nc2N1 (stereo unspecified) -20.7%
COc1ccc(S(=O)(=O)Nc2cccc(-c3ccc(N4CCCC4)nn3)c2)cc1F -14%
Cc1ccccc1NC(=O)CSc1ccc(-c2ccccn2)nn1 -2.06%
CCN1CCN(CCCNC(=O)Cn2nc(C)n3c(cc4c(OC)cccc43)c2=O)CC1 2.47%
COc1ccccc1-c1nn(CCC(=O)Nc2ccc(C)cc2)c2nc(C)cc(C)c12 -4.18%
CC(=O)Nc1cccc(-c2nnc(SCC(=O)c3cc([N+](=O)[O-])ccc3Cl)o2)c1 8.01%
COc1cccc(N2CCN(C(=O)c3ccc4nc(N5CCC(C)CC5)sc4c3)CC2)c1 -25.6%
CCN(CC)C(=O)Cn1ncc2c([nH]c3ccccc32)c1=O 6.46%
CCOc1ccc(NC(=O)CC2C(=O)N(c3ccc(OC)cc3)C(=O)N2CCC2=CCCCC2)cc1 (stereo unspecified) -13.7%
O=C(NCC(c1ccc2c(c1)OCO2)N1CCN(c2ccccc2)CC1)C(=O)Nc1ccccc1F (stereo unspecified) -10.4%
Cc1oc2c(c1C(=O)NCc1ccccc1F)C1=NCCN1C=N2 4.97%
CC(C)Oc1ccc(CNC(=O)c2cnc3sc(N4CCCC4)nn3c2=O)cc1 -7.12%
CCOC(=O)NNC(=O)C1CCC(C)CC1 (stereo unspecified) 12.1%
Cc1ccc(N2CCN(c3nc4ccc(C(=O)c5ccccc5)cc4n4cnnc34)CC2)c(C)c1 -29.5%
COc1ccc(C(C)=O)cc1CSc1nc(Nc2ccc(F)c(F)c2)c2ccccc2n1 0.457%
Cc1ccc(-c2nnc3ccccc3c2C(=O)Nc2ccc(F)cc2)cc1 -4.61%
Cc1ccc([C@@H]2O[C@H](CO)[C@@H](O)[C@H](O)[C@@H]2O)cc1Cc1ccc(-c2ccc(F)cc2)s1 5.58%
CC(=O)Nc1ccc(NC(=O)c2ccc3c(c2)CCN3S(=O)(=O)c2ccc(C)cc2)cc1 -0.912%
Cc1ccn2c(Nc3ccccc3)c(-c3c[nH]c4ccccc34)nc2c1 -5.96%
Cc1cc(C)cc(NC(=O)C(=O)NCCc2sc(-c3cccc(F)c3)nc2C)c1 0.926%
Cc1ccc(-c2nnc(Nc3ccc(OCC(N)=O)cc3)c3ccccc23)cc1S(=O)(=O)NCC1CCCO1 (stereo unspecified) 0.82%
O=C(CCn1cnc2onc(-c3ccc(F)cc3)c2c1=O)Nc1cccc(C(F)(F)F)c1 0.159%
CCOC(=O)c1[nH]c2ccccc2c1NC(=O)c1ccc(C)c(C)c1 -3.38%
O=C(CSc1n[nH]c(-c2ccccc2)n1)N1CCN(c2ccc(F)cc2)CC1 7.92%
COCC(=O)NCC=Cc1ccc2ncnc(Nc3ccc(Oc4ccc(C)nc4)c(C)c3)c2c1 -1.56%
Cc1ccc(CSc2nc3ccccc3c3nc(CCn4c(C)nc5ccccc54)nn23)cc1 5.22%
CCc1ccccc1NC(=O)CCn1cccn1 -5.41%
Cc1ccc(CNC(=O)C2CCN(C(=O)N3CC(C)Oc4ccc(Cl)cc43)CC2)cc1 (stereo unspecified) 36.5%
CCC(C(=O)NCCc1ccc(OC)c(OC)c1OC)n1nc(C)c2sc3ccccc3c2c1=O (stereo unspecified) 0.0292%
Cc1ccc(-n2c(=O)c3c(cnn3C)n(CC(=O)Nc3cccc(Cl)c3)c2=O)cc1 5.02%
CCOc1ccccc1NC(=O)CN1C(=O)CC(c2ccc(C)c(C)c2)=Nc2ccccc21 -4.14%
CC(C)Oc1ccc(CNC(=O)C(C)n2ccc3cc(S(=O)(=O)N4CCCCCC4)ccc32)cc1 (stereo unspecified) -3.18%
CCc1ccc(CNC(=O)CN2C(=O)C3CCCCN3c3ccc(C(=O)N4CCCC4)cc32)cc1 (stereo unspecified) -10.2%
CC1CCN(S(=O)(=O)c2ccc3c(c2)N(C)C(=O)CC(=O)N3C)CC1 0.504%
CCCNC(=O)CN1C(=O)COc2ccc(S(=O)(=O)N3CCCCCC3)cc21 8%
Cc1ccc(-c2nnc(SCc3ccccc3)o2)cc1 -9.91%
COc1cccc(NC(=O)C(C)n2c(=O)cc(C(F)(F)F)c3c(C)nn(C)c32)c1 (stereo unspecified) 7.89%
CCN(CC)C(=O)Cn1c(SCC(=O)Nc2ccc(F)cc2)nc2ccccc21 -14.6%
COc1ccc(OCc2nc3ccccc3n2Cc2ccc(C(C)(C)C)cc2)cc1 5.65%
CCOc1ccccc1NC(=O)Cn1c(=O)nc(-c2ccccc2F)c2cc(Cl)ccc21 -1.18%
CCc1ccccc1NC(=O)Cn1c(=O)n(C(C)C)c(=O)c2oc3ccccc3c21 -2.12%
CCOc1ccccc1C(=O)NCc1ccc2c(c1)CCN2C(=O)c1ccc(F)cc1 -1.62%
Cc1ccc(N(Cc2cccs2)C(=O)c2ccc(OC(C)C)cc2)cc1 -1.62%
COc1cccc(OCCSc2nc3ccccc3n2CC(=O)N2CCOCC2)c1 5.1%
COc1ccc2c(CNC3CCC(C)CC3)c(C(=O)O)n(Cc3ccc(F)cc3)c2c1 (stereo unspecified) -2.91%
COCCNC(=O)c1ccc(Cn2c(SCC(N)=O)nc3ccccc3c2=O)cc1 -6.57%
CCOC(=O)c1cnc2c(ccc3ccccc32)c1Nc1ccccc1O -0.239%
COc1cc2nc(NCCc3cccc(C)c3)n3nc(-c4ccccc4)nc3c2cc1OC -0.75%
COc1ccc(C2CC(=O)Nc3c2c(C)nn3-c2nncc(-c3ccccc3)n2)c(OC)c1OC (stereo unspecified) 2.55%
